# The supplement of paper PMC12217912
# The other results are listed elsewhere or left out. The full chains were built here from the parent and the listed change. Values near 0.05 are background.
# B1: TEV protease; numbered along this chain (parent)
# chain: MGESLFKGPRDYNPISSSICHLTNESDGHTTSLYGIGFGPFIITNKHLFRRNNGTLVVQSLHGVFKVKDTTTLQQHLVDGRDMIIIRMPKDFPPFPQKLKFREPQREERICLVTTNFQTKSMSSMVSDTSCTFPSGDGIFWKHWIQTKDGQCGSPLVSTRDGFIVGIHSASNFTNTNNYFTSVPKNFMELLTNQEAQQWVSGWRLNADSVLWGGHKVFMVKPEEPFQPVKEATQL
# Variants of: B1
# Experiment: raw area under fraction-flipped curve 0-4 h after induction (AUC4h, not background-subtracted), DNA-recorder readout of cleavage of the substrate (dimensionless); higher = more cleavage of the substrate by the protease variant
# Details: temperature: 34 °C; time window: 0-4 h after rhamnose induction
# Method: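 In vivo DNA recorder in E. coli TOP10(DE3) ΔrhaA at 34 °C. Each TEVp single-site mutant (parent TEVp 0) is paired with a single-site variant of the 7-mer TEVs (canonical ENLYFQ|S). The substrate sits between flexible linkers in a Bxb1-sfGFP-TEVs-SsrA fusion, so cleavage stabilises Bxb1 and speeds flipping of a recombination array, read by NGS. The value is the raw area under the fraction-flipped curve over 0-4 h after rhamnose induction (AUC4h), with ≥20 reads per time point. It is not background-subtracted; inactive controls average about 0.047.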
# 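Also: Bxb1 expression induced with 0.2% (w/v) L-rhamnose at OD600 near 0.5, cultures sampled hourly, flipped fraction per protease–substrate barcode pair counted by paired-end Illumina sequencing.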
Variant,area with substrate ANLYFQS,area with substrate CNLYFQS,area with substrate DNLYFQS,area with substrate FNLYFQS,area with substrate HNLYFQS,area with substrate INLYFQS,area with substrate PNLYFQS,area with substrate SNLYFQS,area with substrate TNLYFQS,area with substrate VNLYFQS,area with substrate WNLYFQS,area with substrate YNLYFQS,area with substrate KNLYFQS,area with substrate LNLYFQS,area with substrate NNLYFQS,area with substrate RNLYFQS,area with substrate GNLYFQS,area with substrate MNLYFQS,area with substrate QNLYFQS
MGESLFKGPRDYNPISSSICHLTNESDGHTFSLYGIGFGPFIITNKHLFRRNNGTLVVQSLHGVFKVKDTTTLQQHLVDGRDMIIIRMPKDFPPFPQKLKFREPQREERICLVTTNFQTKSMSSMVSDTSCTFPSGDGIFWKHWIQTKDGQCGSPLVSTRDGFIVGIHSASNFTNTNNYFTSVPKNFMELLTNQEAQQWVSGWRLNADSVLWGGHKVFMVKPEEPFQPVKEATQL [T31F],0.0608,0.0691,0.0743,0.0564,0.0632,0.0696,0.0582,0.0714,0.0608,0.0618,0.054,0.0597,,,,,,,
MGESLFKGPRDYNPISSSICHLTNESDGHTPSLYGIGFGPFIITNKHLFRRNNGTLVVQSLHGVFKVKDTTTLQQHLVDGRDMIIIRMPKDFPPFPQKLKFREPQREERICLVTTNFQTKSMSSMVSDTSCTFPSGDGIFWKHWIQTKDGQCGSPLVSTRDGFIVGIHSASNFTNTNNYFTSVPKNFMELLTNQEAQQWVSGWRLNADSVLWGGHKVFMVKPEEPFQPVKEATQL [T31P],0.068,0.0477,0.0649,,0.0481,0.0557,0.0746,0.0501,0.0466,0.0543,0.0517,0.0671,0.0468,0.0647,0.0586,,,,
MGESLFKGPRDYNPISSSICHLTNESDGHTWSLYGIGFGPFIITNKHLFRRNNGTLVVQSLHGVFKVKDTTTLQQHLVDGRDMIIIRMPKDFPPFPQKLKFREPQREERICLVTTNFQTKSMSSMVSDTSCTFPSGDGIFWKHWIQTKDGQCGSPLVSTRDGFIVGIHSASNFTNTNNYFTSVPKNFMELLTNQEAQQWVSGWRLNADSVLWGGHKVFMVKPEEPFQPVKEATQL [T31W],0.0659,0.0838,0.0744,,0.0511,0.0547,0.0593,0.0577,0.0576,0.0703,0.0722,0.0484,,0.0659,0.0608,0.0573,,,
MGESLFKGPRDYNPISSSICHLTNEFDGHTTSLYGIGFGPFIITNKHLFRRNNGTLVVQSLHGVFKVKDTTTLQQHLVDGRDMIIIRMPKDFPPFPQKLKFREPQREERICLVTTNFQTKSMSSMVSDTSCTFPSGDGIFWKHWIQTKDGQCGSPLVSTRDGFIVGIHSASNFTNTNNYFTSVPKNFMELLTNQEAQQWVSGWRLNADSVLWGGHKVFMVKPEEPFQPVKEATQL [S26F],0.062,0.0568,0.0613,0.0621,0.0583,0.053,0.0583,0.0524,0.0568,0.0555,0.0626,0.0555,0.0598,0.0667,0.0529,,0.0615,,
MGESLFKGPRDYNPISSSICHLTNEKDGHTTSLYGIGFGPFIITNKHLFRRNNGTLVVQSLHGVFKVKDTTTLQQHLVDGRDMIIIRMPKDFPPFPQKLKFREPQREERICLVTTNFQTKSMSSMVSDTSCTFPSGDGIFWKHWIQTKDGQCGSPLVSTRDGFIVGIHSASNFTNTNNYFTSVPKNFMELLTNQEAQQWVSGWRLNADSVLWGGHKVFMVKPEEPFQPVKEATQL [S26K],0.0674,0.0589,0.0493,,0.0592,0.0583,0.0563,0.0593,,0.0416,0.0593,0.0517,,0.0551,0.0455,,,0.0814,
MGESLFKGPRDYNPISSSICHLTNESDGHFTSLYGIGFGPFIITNKHLFRRNNGTLVVQSLHGVFKVKDTTTLQQHLVDGRDMIIIRMPKDFPPFPQKLKFREPQREERICLVTTNFQTKSMSSMVSDTSCTFPSGDGIFWKHWIQTKDGQCGSPLVSTRDGFIVGIHSASNFTNTNNYFTSVPKNFMELLTNQEAQQWVSGWRLNADSVLWGGHKVFMVKPEEPFQPVKEATQL [T30F],0.0757,0.0775,0.0752,0.0681,0.0556,0.0635,0.0585,0.0665,0.0569,0.0653,0.0481,0.0587,0.0646,0.0727,0.0594,0.0361,0.0675,0.0628,0.0512
MGESLFKGPRDYNPISSSICHLTNESDGHWTSLYGIGFGPFIITNKHLFRRNNGTLVVQSLHGVFKVKDTTTLQQHLVDGRDMIIIRMPKDFPPFPQKLKFREPQREERICLVTTNFQTKSMSSMVSDTSCTFPSGDGIFWKHWIQTKDGQCGSPLVSTRDGFIVGIHSASNFTNTNNYFTSVPKNFMELLTNQEAQQWVSGWRLNADSVLWGGHKVFMVKPEEPFQPVKEATQL [T30W],0.0731,0.0622,0.086,,0.0743,0.092,,0.0757,0.0805,,0.0633,,0.0643,0.0574,0.0664,,0.0845,0.0534,
MGESLFKGPRDYNPISSSICHLTNESDGRTTSLYGIGFGPFIITNKHLFRRNNGTLVVQSLHGVFKVKDTTTLQQHLVDGRDMIIIRMPKDFPPFPQKLKFREPQREERICLVTTNFQTKSMSSMVSDTSCTFPSGDGIFWKHWIQTKDGQCGSPLVSTRDGFIVGIHSASNFTNTNNYFTSVPKNFMELLTNQEAQQWVSGWRLNADSVLWGGHKVFMVKPEEPFQPVKEATQL [H29R],0.0588,0.0684,0.0728,0.0567,0.083,,0.0532,0.062,0.0486,,0.0628,0.0618,,0.0666,0.003,,,,
MGESLFKGPRDYNPISSSICHLTNESDGETTSLYGIGFGPFIITNKHLFRRNNGTLVVQSLHGVFKVKDTTTLQQHLVDGRDMIIIRMPKDFPPFPQKLKFREPQREERICLVTTNFQTKSMSSMVSDTSCTFPSGDGIFWKHWIQTKDGQCGSPLVSTRDGFIVGIHSASNFTNTNNYFTSVPKNFMELLTNQEAQQWVSGWRLNADSVLWGGHKVFMVKPEEPFQPVKEATQL [H29E],0.0721,0.0851,0.0665,,0.0741,0.0649,0.078,0.0592,0.072,,0.0441,0.0646,0.0673,0.066,,0.0694,0.0635,0.0703,0.0644
